Laboratory results as given in PubChem BioAssay (EPA / NIEHS).
For some assays here: This list holds what a sample rich in hits left over. Inconclusive results are not listed. This is a selection; strong and weak results do not stand in their true shares. More than one record can exist for a structure, and the calls need not agree. The source made the active and inactive calls. How the source made its calls, unless noted: active means hit-call score of the fitted dose curve at least 0.9, where 1 is the maximum; inactive means score below 0.9.

Tests used:
[1] = read-out: serum amyloid A (SAA), SAA1 (gene 6288); assay: BSK_CASM3C_SAA: BioMAP Diversity Plus: CASM3C Assay for serum amyloid A (SAA) Biomarker Activity (AID 2283049); settings: actives raise or lower the signal; primary human coronary artery smooth muscle cells;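 further: SAA protein level quantified by ELISA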
[2] = read-out: Macrophage colony-stimulating factor (MCSF), CSF1 (gene 1435); assay: BSK_LPS_MCSF: BioMAP Diversity Plus: LPS Assay for Macrophage colony-stimulating factor (MCSF) Biomarker Activity (AID 2283083); settings: actives raise or lower the signal; primary human HUVEC with PBMC
In short: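 Compound is added to a human vascular primary co-culture of umbilical vein endothelium and blood mononuclear cells. After 24 h, M-CSF is quantified by ELISA. Signal changes are fitted in both directions against DMSO.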

[3] = read-out: Collagen III, COL3A1 (gene 1281); assay: BSK_hDFCGF_CollagenIII: BioMAP Diversity Plus: hDFCGF Assay for Collagen III Biomarker Activity (AID 2283056); settings: actives raise or lower the signal; primary human foreskin fibroblasts
In short: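 Cells: human foreskin fibroblasts, primary. Dosing followed by 24 h incubation, then ELISA for collagen III. Both increases and decreases scored relative to DMSO.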

[4] = molecular target: Estrogen receptor beta (Homo sapiens) (UniProt Q92731); assay: OT_ER_ERbERb_0480: Odyssey Thera (OT) 8-hour HEK293T Protein-Complementation Assay for Estrogen Receptor-beta/-beta Homodimer (AID 2283357; active means hit-call score of the fitted dose curve at least 0.9, where 1 is the maximum;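 further: active means signal gain over DMSO baseline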)
In short: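 Fluorescence intensity, nuclear for agonists and nuclear plus cytoplasmic for antagonists, was quantified by laser scanning cytometry versus vehicle after 8 h treatment. The cells were HEK293T stably carrying ER beta LBD fragment-complementation partners.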

[5] = read-out: Matrix Metallopeptidase 1 (MMP1), MMP1 (gene 4312); assay: BSK_hDFCGF_MMP1: BioMAP Diversity Plus: hDFCGF Assay for Matrix Metallopeptidase 1 (MMP1) Biomarker Activity (AID 2283064); settings: actives raise or lower the signal; primary human foreskin fibroblasts
In short: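 Primary human foreskin fibroblasts exposed to chemicals for 24 h; MMP1 measured by ELISA. Cytotoxicity tracked by SRB staining in parallel cultures; bidirectional fit relative to DMSO.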

[6] = read-out: Lipoprotein lipase (LPL), LPL (gene 4023); assay: LTEA_HepaRG_LPL: Life Technologies and Expression Analysis (LTEA) Assay for Lipoprotein lipase (LPL) using HepaRG (AID 2283515); settings: actives raise or lower the signal; mRNA level, 48 h
In short: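 Differentiated HepaRG cells, plated 48 h, then exposed 48 h in serum-free induction medium to 8 concentrations (top 100 uM, half-log steps) in 0.5% DMSO, duplicate. LPL mRNA measured by qRT-PCR, normalized to ACTB, GAPDH and POLR2A.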

[7] = read-out: Monocyte Chemoattractant Protein-1 (MCP1), CCL2 (gene 6347); assay: BSK_CASM3C_MCP1: BioMAP Diversity Plus: CASM3C Assay for Monocyte Chemoattractant Protein-1 (MCP1) Biomarker Activity (AID 2283046); settings: actives raise or lower the signal; primary human coronary artery smooth muscle cells;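 further: MCP-1 level quantified by ELISA 24 h after dosing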
[8] = read-out: Matrix Metallopeptidase 9 (MMP9), MMP9 (gene 4318); assay: BSK_KF3CT_MMP9: BioMAP Diversity Plus: KF3CT Assay for Matrix Metallopeptidase 9 (MMP9) Biomarker Activity (AID 2283074); settings: actives raise or lower the signal; primary human keratinocytes with fibroblasts
In short: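 Human keratinocyte and foreskin fibroblast co-culture exposed to chemicals for 24 h; MMP9 biomarker measured by ELISA, bidirectional fitting relative to DMSO; cytotoxicity tracked by SRB total protein staining in parallel cultures.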

[9] = molecular target: Estrogen receptor (Homo sapiens) (UniProt P03372); assay: OT_ER_ERaERa_0480: Odyssey Thera (OT) 8-hour HEK293T Protein-Complementation Assay for Estrogen Receptor-alpha/-alpha Homodimer (AID 2283351; active means hit-call score of the fitted dose curve at least 0.9, where 1 is the maximum;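 further: rise in fluorescence from reassembled reporter fragments on ERα LBD homodimer in nucleus or whole cell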)
In short: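 HEK293T cells stably expressing the human ERα ligand-binding domain (aa 310-547) as a homodimer PCA were dosed with compound for 8 h. Gain of fluorescence intensity versus DMSO vehicle was read by laser scanning cytometry.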

[10] = molecular target: Peroxisome proliferator-activated receptor gamma (Homo sapiens) (UniProt P37231); assay: OT_PPARg_PPARgSRC1_0480: Odyssey Thera (OT) 8-hour Protein-Complementation Assay for Peroxisome Proliferator-activated Receptor Gamma / SRC-1 Co-activator (AID 2283387; active means hit-call score of the fitted dose curve at least 0.9, where 1 is the maximum;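 further: nuclear to cytoplasmic split Venus YFP fluorescence ratio reporting PPARg SRC-1 interaction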)
In short: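 Read-out: 488 nm N/C fluorescence ratio from complemented Venus YFP fragments, ≥350 cells per image, gain-of-signal fitted against DMSO baseline. Fusions of PPARg/SRC-1 with IFP1/IFP2 expressed transiently in HEK293T; compounds applied 8 h.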

[11] = read-out: Protein phosphatase 2A (PPP2R4), PTPA (gene 5524); assay: LTEA_HepaRG_PPP2R4: Life Technologies and Expression Analysis (LTEA) Assay for Protein phosphatase 2A (PPP2R4) using HepaRG (AID 2283522); settings: actives raise or lower the signal; mRNA level, 48 h
In short: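 Differentiated HepaRG cells in serum-free induction medium were exposed in duplicate for 48 h to eight concentrations, top 100 uM with half-log dilutions, in 0.5% DMSO. PPP2R4 mRNA was quantified by TaqMan qRT-PCR, normalized to ACTB, GAPDH and POLR2A.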

[12] = read-out: Tumor necrosis factor receptor 1 (TNFRSF1A), TNFRSF1A (gene 7132); assay: LTEA_HepaRG_TNFRSF1A: Life Technologies and Expression Analysis (LTEA) Assay for Tumor necrosis factor receptor 1 (TNFRSF1A) using HepaRG (AID 2283535); settings: actives raise or lower the signal; mRNA level, 48 h
In short: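 Expression of TNFRSF1A in human HepaRG liver cells was measured by qRT-PCR 48 h after chemical dosing (maximum 100 uM). Bidirectional curve fitting used 0.5% DMSO as baseline.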

[13] = read-out: Transforming growth factor beta 1 (TGFb1), TGFB1 (gene 7040); assay: BSK_KF3CT_TGFb1: BioMAP Diversity Plus: KF3CT Assay for Transforming growth factor beta 1 (TGFb1) Biomarker Activity (AID 2283072); settings: actives raise or lower the signal; primary human keratinocytes with fibroblasts
In short: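 Human keratinocyte plus foreskin fibroblast primary co-culture, dosed with chemical for 24 h. TGF-b1 quantified by ELISA. Activity fitted bidirectionally against DMSO negative control as baseline.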

[14] = BSK_CASM3C_Proliferation: Cell Proliferation Assessment in the BioMAP Diversity Plus: CASM3C Assay (AID 2283047); settings: primary human coronary artery smooth muscle cells;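 further: sulforhodamine B total protein stain as relative cell number at 560 nm; sub-confluent cells exposed 48 h before staining; fitted both ways against DMSO so gain or loss of cell number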
[15] = BSK_hDFCGF_Proliferation: Cell Proliferation Assessment in the BioMAP Diversity Plus: hDFCGF Assay (AID 2283059); settings: primary human foreskin fibroblasts;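 further: curves fitted for both rise and fall of signal versus DMSO baseline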
In short: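 Sub-confluent human foreskin fibroblast cultures receive test chemical […]. Relative cell number is quantified by sulforhodamine B staining (0.1%, after 10% TCA fixation) at 560 nm, with bidirectional fitting referenced to DMSO.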

[16] = read-out: CD38, CD38 (gene 952); assay: BSK_SAg_CD38: BioMAP Diversity Plus: SAg Assay for CD38 Biomarker Activity (AID 2283087); settings: actives raise or lower the signal; primary human HUVEC with PBMC
In short: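 Fluorescence ELISA of cell-surface CD38 served as the read-out, with either increase or decrease fitted against DMSO controls. Cells were a human umbilical vein endothelium plus PBMC co-culture under SEB/TSST-1 stimulation, measured 24 h after dosing.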

[17] = BSK_SAg_SRB: Viability Assessment in the BioMAP Diversity Plus: SAg Assay (AID 2283096); settings: primary human HUVEC with PBMC;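 further: cells read one day after compound addition; hits may be either gain or loss of signal compared with DMSO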
In short: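 Human umbilical vein endothelial cells co-cultured with PBMC, read 24 h after compound dosing. Total protein measured by sulforhodamine B staining (0.1% SRB after 10% TCA fixation, absorbance 560 nm); bidirectional fit versus DMSO baseline.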

[18] = CCTE_Shafer_MEA_acute_burst_percentage_std: CCTE's Neural Acute Assay for Standard Deviation of Burst Percentage, Shafer Lab (AID 2284018);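 further: fitted in the negative direction so actives lower burst percentage SD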
In short: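 Rat primary cortical neurons on 48-well MEAs, DIV 13 or 15, 37 C. 40-min baseline then 40-min recording with compound (0.03-40 uM); well-level SD of per-electrode burst spike percentage, expressed as percent change from baseline.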

[19] = read-out: Intercellular Adhesion Molecule 1 (ICAM1), ICAM1 (gene 3383); assay: BSK_BE3C_ICAM1: BioMAP Diversity Plus: BE3C Assay for Intercellular Adhesion Molecule 1 (ICAM1) Biomarker Activity (AID 2284278); settings: primary human bronchial epithelial cells
In short: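 Primary human bronchial epithelial cells were exposed to compound for 24 h, after which cell-surface ICAM-1 was quantified by ELISA. Activity was fitted in the gain-of-signal direction against DMSO as negative control and baseline.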

[20] = read-out: C-C motif chemokine 2 (Homo sapiens) (UniProt P13500); assay: BSK_KF3CT_MCP1: BioMAP Diversity Plus: KF3CT Assay for Monocyte Chemoattractant Protein 1 (MCP1/CCL2) Biomarker Activity (AID 2283073); settings: actives raise or lower the signal; primary human keratinocytes with fibroblasts
In short: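 Keratinocytes and foreskin fibroblasts were co-cultured, dosed with chemical, and sampled 24 h later. MCP-1 was quantified by ELISA, and the endpoint was analyzed with bidirectional fitting using DMSO as negative control.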

[21] = read-out: TIMP metallopeptidase inhibitor 2 (TIMP2), TIMP2 (gene 7077); assay: BSK_KF3CT_TIMP2: BioMAP Diversity Plus: KF3CT Assay for TIMP metallopeptidase inhibitor 2 (TIMP2) Biomarker Activity (AID 2283071); settings: actives raise or lower the signal; primary human keratinocytes with fibroblasts
In short: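 Human primary keratinocyte/foreskin fibroblast co-culture dosed with chemical and sampled at 24 h. TIMP-2 levels quantified by ELISA; bidirectional fitting against DMSO negative control as baseline.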

[22] = BSK_KF3CT_SRB: Viability Assessment in the BioMAP Diversity Plus: KF3CT Assay (AID 2283069); settings: primary human keratinocytes with fibroblasts;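 further: total protein by sulforhodamine B staining as a cytotoxicity measure; fitted for both signal gain and loss against DMSO baseline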
In short: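 Human keratinocyte and foreskin fibroblast co-culture exposed to chemical for 24 h. Total protein measured in parallel cultures by 0.1% sulforhodamine B staining after 10% TCA fixation, read at 560 nm; bidirectional fit relative to DMSO.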

[23] = molecular target: Estrogen receptor (Homo sapiens) (UniProt P03372); assay: OT_ERa_GFPERaERE_0480: Odyssey Thera (OT) 8-hour HeLa Transcription Induction Assay for Estrogen Receptor (AID 2283381)
In short: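 HeLa cells dosed with compound and imaged by fluorescence microscopy at 8 h; GFP induction from an ERE reporter quantified by high-content image analysis and fitted as gain of signal against DMSO baseline.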

[24] = molecular target: Retinoic acid receptor RXR-alpha (Homo sapiens) (UniProt P19793); assay: OT_NURR1_NURR1RXRa_0480: Odyssey Thera (OT) 8-hour HEK293T Protein Complementation Assay for Nurr1/retinoid X receptor (RXR) (AID 2283385; active means hit-call score of the fitted dose curve at least 0.9, where 1 is the maximum)
In short: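 HEK293T cells expressing Nurr1 and RXRα fused to reporter fragments were dosed with compound for 8 hours. Complex formation was read as fluorescence intensity and analysed as gain of signal against DMSO as baseline.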

[25] = BSK_hDFCGF_SRB: Viability Assessment in the BioMAP Diversity Plus: hDFCGF Assay (AID 2283061); settings: primary human foreskin fibroblasts;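 further: cells exposed to compound for 24 h before the read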
In short: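 Cells were dosed with test chemical, cultured 24 h, fixed with 10% TCA, then stained with 0.1% SRB and read at 560 nm. The fibroblasts were human foreskin primary cells, and DMSO served as baseline.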

[26] = ACEA_AR_antagonist_AUC_viability: ACEA Biosciences xCELLigence Real-Time Cell Analysis on Androgen Receptor Antagonism for Viability (AID 2283776; active means hit-call score of the fitted dose curve at least 0.9, where 1 is the maximum;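 further: 22Rv1 human prostate cancer cells growing on impedance electrode plates; area under impedance growth curve at 80 h after dosing as viability; hits lower the growth signal relative to DMSO meaning cytotoxicity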)
In short: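 Real-time electrical impedance tracks 22Rv1 proliferation after continuous compound exposure (top 100 uM final, 1:4 steps, 8 concentrations). The 80 h area-under-curve serves as the cytotoxicity readout relative to DMSO.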

UniProt P03372, sequence (P03372 whole entry, looked up, the tested form may be a part): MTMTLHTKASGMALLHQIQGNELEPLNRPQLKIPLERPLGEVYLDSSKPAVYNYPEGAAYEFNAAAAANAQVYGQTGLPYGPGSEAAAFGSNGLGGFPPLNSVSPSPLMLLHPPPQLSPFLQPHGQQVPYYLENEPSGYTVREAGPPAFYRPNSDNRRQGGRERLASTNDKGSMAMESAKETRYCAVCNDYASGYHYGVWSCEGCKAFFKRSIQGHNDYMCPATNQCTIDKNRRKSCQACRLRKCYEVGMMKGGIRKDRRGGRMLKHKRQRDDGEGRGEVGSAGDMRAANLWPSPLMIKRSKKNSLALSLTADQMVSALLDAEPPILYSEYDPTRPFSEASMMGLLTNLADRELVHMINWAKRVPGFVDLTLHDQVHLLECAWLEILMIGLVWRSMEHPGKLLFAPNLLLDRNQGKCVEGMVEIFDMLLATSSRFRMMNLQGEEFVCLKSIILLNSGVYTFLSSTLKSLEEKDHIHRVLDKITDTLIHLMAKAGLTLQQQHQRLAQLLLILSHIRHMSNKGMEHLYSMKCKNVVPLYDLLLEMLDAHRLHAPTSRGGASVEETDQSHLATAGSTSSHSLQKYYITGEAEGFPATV
C-C motif chemokine 2 (Homo sapiens), sequence (P13500 whole entry, looked up): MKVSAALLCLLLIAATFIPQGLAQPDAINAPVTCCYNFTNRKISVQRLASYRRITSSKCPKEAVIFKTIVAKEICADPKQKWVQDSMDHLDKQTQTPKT
UniProt P37231, sequence (P37231 whole entry, looked up, the tested form may be a part): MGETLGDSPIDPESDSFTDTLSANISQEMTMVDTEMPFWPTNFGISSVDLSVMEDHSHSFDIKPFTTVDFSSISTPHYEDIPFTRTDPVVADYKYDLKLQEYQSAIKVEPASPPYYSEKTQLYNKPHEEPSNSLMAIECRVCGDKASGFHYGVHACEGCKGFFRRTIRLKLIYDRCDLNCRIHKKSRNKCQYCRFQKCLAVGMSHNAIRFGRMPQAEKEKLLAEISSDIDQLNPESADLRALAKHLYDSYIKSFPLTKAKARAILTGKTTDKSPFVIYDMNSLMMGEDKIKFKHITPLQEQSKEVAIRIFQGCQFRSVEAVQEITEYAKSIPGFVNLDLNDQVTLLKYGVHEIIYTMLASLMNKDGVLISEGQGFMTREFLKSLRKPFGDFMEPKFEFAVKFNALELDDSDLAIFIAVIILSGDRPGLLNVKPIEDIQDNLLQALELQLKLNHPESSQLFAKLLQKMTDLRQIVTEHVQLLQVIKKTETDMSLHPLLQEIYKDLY
UniProt Q92731, sequence (Q92731 whole entry, looked up, the tested form may be a part): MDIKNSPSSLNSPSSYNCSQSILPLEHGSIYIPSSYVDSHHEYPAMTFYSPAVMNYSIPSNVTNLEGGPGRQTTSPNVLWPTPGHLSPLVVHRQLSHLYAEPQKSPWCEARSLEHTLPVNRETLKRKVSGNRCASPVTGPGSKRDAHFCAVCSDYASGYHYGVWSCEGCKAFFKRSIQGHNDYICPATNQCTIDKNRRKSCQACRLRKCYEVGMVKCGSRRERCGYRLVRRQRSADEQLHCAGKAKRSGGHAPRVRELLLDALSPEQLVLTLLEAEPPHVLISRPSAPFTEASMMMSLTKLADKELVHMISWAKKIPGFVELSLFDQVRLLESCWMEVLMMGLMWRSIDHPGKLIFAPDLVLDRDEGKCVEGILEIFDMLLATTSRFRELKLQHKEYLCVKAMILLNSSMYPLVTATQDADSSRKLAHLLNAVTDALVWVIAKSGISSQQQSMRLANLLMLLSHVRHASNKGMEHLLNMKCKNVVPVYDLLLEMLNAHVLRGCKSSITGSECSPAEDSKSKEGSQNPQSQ
UniProt P19793, sequence (P19793 whole entry, looked up, the tested form may be a part): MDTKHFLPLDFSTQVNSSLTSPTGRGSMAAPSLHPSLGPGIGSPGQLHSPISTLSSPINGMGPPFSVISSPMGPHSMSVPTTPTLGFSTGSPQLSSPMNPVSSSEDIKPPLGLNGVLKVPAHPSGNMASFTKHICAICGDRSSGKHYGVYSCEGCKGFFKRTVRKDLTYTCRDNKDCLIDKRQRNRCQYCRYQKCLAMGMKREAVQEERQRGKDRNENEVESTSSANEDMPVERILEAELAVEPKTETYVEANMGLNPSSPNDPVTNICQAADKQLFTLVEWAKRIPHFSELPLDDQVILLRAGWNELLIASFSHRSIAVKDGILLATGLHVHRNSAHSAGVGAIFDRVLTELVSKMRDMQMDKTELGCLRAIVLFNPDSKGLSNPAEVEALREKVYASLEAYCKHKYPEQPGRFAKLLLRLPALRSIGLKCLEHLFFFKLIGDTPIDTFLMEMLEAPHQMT

SMILES: Cc1cc(Cc2ccc(N)c(C)c2)ccc1N
- outcome [1]: inactive
- outcome [2]: inactive

SMILES: CCCCN1C(=O)[C@@H]([C@H](O)C2CCCCC2)NC(=O)C12CCN(Cc1ccc(Oc3ccc(C(=O)O)cc3)cc1)CC2
- AC50 [3]: active: 20 µM
- outcome [4]: inactive

SMILES: NNC(=O)c1ccncc1
- outcome [5]: inactive
- outcome [6]: inactive

SMILES: Nc1ccc2c(c1)C(=O)c1ccccc1C2=O
- outcome [7]: inactive
- outcome [8]: inactive
- outcome [9]: inactive
- outcome [10]: inactive
- outcome [11]: inactive
- outcome [12]: inactive

SMILES: Oc1cccc(O)c1
- outcome [13]: inactive

SMILES: Nc1ccc(N)c(Cl)c1
- AC50 [14]: active: 4.12 µM
- AC50 [15]: active: 8.34 µM
- AC50 [16]: active: 29.8 µM
- AC50 [17]: active: 30.6 µM
- outcome [18]: inactive
- AC50 [19]: active: 14.4 µM

SMILES: CCN(C(=O)c1cc(C)cc(OC[C@H](C)Nc2ccncc2)c1)C(C)C
- outcome [20]: inactive

SMILES: OCCC(F)(F)C(F)(F)C(F)(F)C(F)(F)C(F)(F)C(F)(F)F
- outcome [21]: inactive

SMILES: CCCCCCC(=O)O
- outcome [22]: inactive
- outcome [23]: inactive
- outcome [24]: inactive

SMILES: O=C(Nc1ccc2c(O)c(N=Nc3ccc(N=Nc4ccc(S(=O)(=O)O)cc4)cc3)c(S(=O)(=O)O)cc2c1)c1ccccc1
- AC50 [25]: active: 29.5 µM
- outcome [26]: inactive
